For 66 cell lines, AUC and IC50 results are on record in the supplement of paper PMC4967469.

Compound in this assay: NC1(c2ccc(-c3nc4ccn5c(=O)[nH]nc5c4cc3-c3ccccc3)cc2)CCC1 [MK-2206]
Briefly: Viability of human cancer cell lines after 72 h of drug (GDSC screen). As to the method: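 Human cancer cell lines in 384-well plates, medium with 10% serum, drug for 72 h over a 256-fold dose range (nine 2-fold or five 4-fold steps up to the top dose). Adherent lines were fixed and stained with the nucleic acid dye Syto60, suspension lines read with resazurin; signal relative to control wells, capped at 0 and 100%. One two-parameter sigmoid per drug and line, fitted in a mixed model over all curves with the slope shared within a line.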

IC50 is the fitted dose that halves viability relative to control wells, and lower means more sensitive; where the fit passes the top or lowest dose, that dose stands as a limit. AUC is the area under the same curve over the 256-fold range up to the top dose, as a fraction; the more sensitive the line, the further below 1.

Turning to “KLE (endometrium, adherent, top dose 4 µM)”, the AUC was 0.803 and the IC50 (usually the concentration that gives 50% inhibition) was 3.51 µM.

As to “KM12 (large intestine, adherent, top dose 4 µM)”, the AUC stood at 0.951 and the IC50 is over 4 µM.

On to “KM-H2 (Hodgkin lymphoma, suspension, top dose 4 µM)”, for which the AUC amounted to 0.993 and the IC50 was over 4 µM.

As to “KMH-2 (thyroid, adherent, top dose 4 µM)”, the AUC was 0.969 and the IC50 is over 4 µM.

As to “KMOE-2 (acute myeloid leukaemia, suspension, top dose 4 µM)”, the AUC was 0.777 and the IC50 was determined as 1.44 µM.

Take “KMRC-1 (kidney, adherent, top dose 4 µM)”: the AUC turned out to be 0.931 and the IC50 is over 4 µM.

For the cell line “KMRC-20 (kidney, adherent, top dose 4 µM)”, the AUC was found to be 0.927 and the IC50 is over 4 µM.

“KMS-11 (myeloma, suspension, top dose 4 µM)”: the AUC worked out at 0.988 and the IC50 is over 4 µM.

With “KNS-42 (glioma, adherent, top dose 4 µM)”, the AUC is 0.983 and the IC50 was over 4 µM.

On to “KNS-62 (lung squamous cell carcinoma, adherent, top dose 4 µM)”, for which the AUC stood at 0.807 and the IC50 turned out to be 3.29 µM.

For the cell line “KNS-81-FD (glioma, adherent, top dose 4 µM)”, the AUC was determined as 0.926 and the 50% inhibitory concentration (IC50) was over 4 µM.

As to “KON (head and neck, adherent, top dose 4 µM)”, the AUC is 0.7 and the IC50 stood at 0.899 µM.

On to “KOPN-8 (B-cell leukaemia, suspension, top dose 4 µM)”, for which the AUC worked out at 0.943 and the IC50 was over 4 µM.

Turning to “KP-1N (pancreas, adherent, top dose 4 µM)”, the AUC amounted to 0.955 and the IC50 is over 4 µM.

Regarding “KP-2 (pancreas, adherent, top dose 4 µM)”, the AUC turned out to be 0.894 and the IC50 is over 4 µM.

Consider “KP-3 (pancreas, adherent, top dose 4 µM)”, for which the AUC is 0.896 and the IC50 was over 4 µM.

Regarding “KP-N-YN (neuroblastoma, adherent, top dose 4 µM)”, the AUC was 0.985 and the IC50 is over 4 µM.

For KS-1 (glioma, adherent, top dose 4 µM), the AUC amounted to 0.772 and the IC50 came to 1.93 µM.

For “KU812 (chronic myeloid leukaemia, suspension, top dose 4 µM)”, the AUC came to 0.879 and the IC50 worked out at 3.47 µM.

In the case of “KU-19-19 (bladder, adherent, top dose 4 µM)”, the AUC is 0.908 and the IC50 is over 4 µM.

As to “KURAMOCHI (ovary, adherent, top dose 4 µM)”, the AUC stood at 0.714 and the IC50 was determined as 1.12 µM.

Turning to “KY821 (leukaemia, suspension, top dose 4 µM)”, the AUC amounted to 0.963 and the IC50 was over 4 µM.

With “KYAE-1 (oesophagus, suspension, top dose 4 µM)”, the AUC was found to be 0.593 and the IC50 stood at 0.464 µM.

Consider “KYSE-50 (oesophagus, adherent, top dose 4 µM)”, for which the AUC stood at 0.986 and the IC50 is over 4 µM.

“KYSE-140 (oesophagus, adherent, top dose 4 µM)”: the AUC is 0.908 and the IC50 is over 4 µM.

For “KYSE-150 (oesophagus, adherent, top dose 4 µM)”, the AUC amounted to 0.986 and the IC50 is over 4 µM.

“KYSE-220 (oesophagus, adherent, top dose 4 µM)”: the AUC amounted to 0.963 and the IC50 is over 4 µM.

Regarding “KYSE-410 (oesophagus, adherent, top dose 4 µM)”, the AUC was 0.91 and the half-maximal inhibitory concentration (IC50) is over 4 µM.

Consider “KYSE-450 (oesophagus, adherent, top dose 4 µM)”, for which the AUC was 0.959 and the IC50 is over 4 µM.

For “KYSE-510 (oesophagus, adherent, top dose 4 µM)”, the AUC came out at 0.912 and the IC50 is over 4 µM.

For “KYSE-520 (oesophagus, adherent, top dose 4 µM)”, the AUC amounted to 0.933 and the IC50 was over 4 µM.

Turning to “L-363 (myeloma, suspension, top dose 4 µM)”, the AUC amounted to 0.573 and the half-inhibitory concentration (IC50) worked out at 0.385 µM.

Consider “L-428 (Hodgkin lymphoma, suspension, top dose 4 µM)”, for which the AUC was found to be 0.993 and the IC50 was over 4 µM.

For “L-540 (Hodgkin lymphoma, suspension, top dose 4 µM)”, the AUC came to 0.933 and the concentration for half-maximal inhibition (IC50) was over 4 µM.

For the cell line “L-1236 (Hodgkin lymphoma, suspension, top dose 4 µM)”, the AUC turned out to be 0.844 and the IC50 was determined as 2.23 µM.

On to “LAMA-84 (chronic myeloid leukaemia, suspension, top dose 4 µM)”, for which the AUC turned out to be 0.83 and the IC50 was found to be 2.55 µM.

“LAN-6 (neuroblastoma, adherent, top dose 4 µM)”: the AUC is 0.898 and the concentration for half-maximal inhibition (IC50) is over 4 µM.

With “LB373-MEL-D (melanoma, adherent, top dose 4 µM)”, the AUC was determined as 0.925 and the IC50 was over 4 µM.

On to “LB647-SCLC (small cell lung carcinoma, semi-adherent, top dose 4 µM)”, for which the AUC is 0.843 and the IC50 was found to be 3.34 µM.

As to “LB771-HNC (head and neck, adherent, top dose 4 µM)”, the AUC came out at 0.899 and the IC50 was over 4 µM.

Turning to “LB831-BLC (bladder, adherent, top dose 4 µM)”, the AUC was determined as 0.958 and the IC50 is over 4 µM.

In the case of “LB996-RCC (kidney, adherent, top dose 2 µM)”, the AUC stood at 0.928 and the IC50 was over 2 µM.

Consider “LB1047-RCC (kidney, adherent, top dose 4 µM)”, for which the AUC worked out at 0.774 and the IC50 was determined as 1.77 µM.

As for “LB2518-MEL (melanoma, adherent, top dose 4 µM)”, the AUC is 0.98 and the IC50 is over 4 µM.

“LC4-1 (lymphoblastic leukaemia, suspension, top dose 4 µM)”: the AUC turned out to be 0.966 and the IC50 was over 4 µM.

As for “LC-1-sq (lung squamous cell carcinoma, adherent, top dose 4 µM)”, the AUC is 0.919 and the IC50 is over 4 µM.

On to “LC-2-ad (lung adenocarcinoma, adherent, top dose 2 µM)”, for which the AUC was 0.952 and the IC50 is over 2 µM.

On to “LCLC-97TM1 (large cell lung carcinoma, adherent, top dose 4 µM)”, for which the AUC came to 0.912 and the IC50 was over 4 µM.

For the cell line “LK-2 (lung squamous cell carcinoma, adherent, top dose 4 µM)”, the AUC was found to be 0.942 and the 50% inhibitory concentration (IC50) is over 4 µM.

As to LN-18 (glioma, adherent, top dose 4 µM), the AUC was 0.907 and the IC50 turned out to be 3.64 µM.

For the cell line “LN-229 (glioma, adherent, top dose 4 µM)”, the AUC was determined as 0.985 and the IC50 is over 4 µM.

Consider “LN-405 (glioma, adherent, top dose 4 µM)”, for which the AUC was found to be 0.855 and the IC50 is over 4 µM.

On to “LNCaP-Clone-FGC (prostate, adherent, top dose 4 µM)”, for which the AUC turned out to be 0.643 and the IC50 was found to be 0.661 µM.

Regarding “LNZTA3WT4 (glioma, adherent, top dose 4 µM)”, the AUC worked out at 0.919 and the IC50 was over 4 µM.

On to “LOU-NH91 (lung squamous cell carcinoma, adherent, top dose 4 µM)”, for which the AUC was 0.751 and the half-maximal inhibitory concentration (IC50) came to 1.42 µM.

For “LOUCY (T-cell lymphoblastic leukaemia, suspension, top dose 4 µM)”, the AUC is 0.649 and the IC50 was found to be 0.592 µM.

Turning to “LOXIMVI (melanoma, semi-adherent, top dose 4 µM)”, the AUC stood at 0.93 and the IC50 is over 4 µM.

“LP-1 (myeloma, suspension, top dose 4 µM)”: the AUC is 0.974 and the IC50 was over 4 µM.

“LS-180 (large intestine, adherent, top dose 4 µM)”: the AUC was determined as 0.903 and the IC50 was over 4 µM.

As to “LS-411N (large intestine, adherent, top dose 4 µM)”, the AUC worked out at 0.943 and the IC50 is over 4 µM.

For “LS-513 (large intestine, adherent, top dose 4 µM)”, the AUC is 0.702 and the IC50 was found to be 0.949 µM.

Consider “LS-1034 (large intestine, adherent, top dose 4 µM)”, for which the AUC was 0.978 and the half-maximal inhibitory concentration (IC50) was over 4 µM.

With “LU-65 (large cell lung carcinoma, suspension, top dose 4 µM)”, the AUC was 0.987 and the IC50 was over 4 µM.

Take “LU-134-A (small cell lung carcinoma, suspension, top dose 4 µM)”: the AUC came to 0.781 and the IC50 was 1.77 µM.

Take “LU-135 (small cell lung carcinoma, suspension, top dose 4 µM)”: the AUC is 0.937 and the IC50 is over 4 µM.

As for “LU-139 (small cell lung carcinoma, suspension, top dose 4 µM)”, the AUC came to 0.896 and the IC50 was over 4 µM.
